Data on 101 compounds can be found in publication PMC6919601, “Identification of Plasmodium dipeptidyl aminopeptidase allosteric inhibitors by high throughput screening” (PLoS ONE, 2019).

In all, about 110,000 compounds went through this assay and about 230 (0.21%) showed an effect of 50% or more. This is one part of the list.
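Further: 30 min substrate incubation versus DMSO and 10 µM JCP410 controls.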

The target in this assay is DPAP1 (Plasmodium falciparum, UniProt Q8IIJ9). In words: primary screen, percent inhibition; read by cleavage of a fluorogenic dipeptide substrate; higher = more effect of the substance. Also noted: species or system P. falciparum D10 trophozoite lysates; single well.
DPAP1, sequence (Q8IIJ9 whole entry, looked up): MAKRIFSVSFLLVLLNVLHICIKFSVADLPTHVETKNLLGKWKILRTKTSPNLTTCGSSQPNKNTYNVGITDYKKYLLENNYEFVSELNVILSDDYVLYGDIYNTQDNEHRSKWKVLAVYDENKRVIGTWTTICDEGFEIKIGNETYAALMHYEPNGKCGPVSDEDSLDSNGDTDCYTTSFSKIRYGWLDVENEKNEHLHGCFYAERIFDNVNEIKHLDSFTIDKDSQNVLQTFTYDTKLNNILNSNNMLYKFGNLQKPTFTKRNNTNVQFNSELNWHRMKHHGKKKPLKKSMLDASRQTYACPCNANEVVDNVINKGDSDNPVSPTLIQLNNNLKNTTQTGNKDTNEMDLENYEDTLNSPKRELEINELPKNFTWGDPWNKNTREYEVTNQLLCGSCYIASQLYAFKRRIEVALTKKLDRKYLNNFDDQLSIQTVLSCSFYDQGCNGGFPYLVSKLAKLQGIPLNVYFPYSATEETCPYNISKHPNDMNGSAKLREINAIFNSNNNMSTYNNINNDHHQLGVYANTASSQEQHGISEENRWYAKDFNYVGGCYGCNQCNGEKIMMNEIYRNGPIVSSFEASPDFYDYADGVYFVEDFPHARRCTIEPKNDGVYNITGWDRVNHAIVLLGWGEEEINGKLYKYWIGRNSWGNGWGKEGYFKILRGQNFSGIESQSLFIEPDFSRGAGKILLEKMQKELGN
`COc1ccccc1NC(=O)C1=C(C)Nc2nc(CCCO)nn2C1c1ccc(Cl)c(Cl)c1` (centres unmarked): the “% Inhibition @ 10 uM” value worked out at 4.76%.

For the compound `COc1ccc(C2(C(=O)NC(C)(C)C)CCOCC2)cc1`, the “% Inhibition @ 10 uM” value stood at 3.1%. The value for `COc1ccc(-n2c(SCC(=O)Nc3nc(C)cs3)nnc2-c2c[nH]c3ccccc23)cc1` was 0.44%; that for `COc1ccc(S(=O)(=O)N[C@@H](Cc2ccc3ccccc3c2)C(=O)NCC#N)cc1` was -7.36%; that for `COc1ccccc1N1CCN(C(=O)Cc2c(SC)[nH]c3ccccc23)CC1` was 2.48%. Consider `COc1ccc(-c2nc3ccccc3n2CC(C)C)cc1`, for which the “% Inhibition @ 10 uM” value is -0.551%. As for `COc1cccc(C2C3=C(O)CCCC3=NC(C)=C2C(=O)Nc2ccccc2F)c1` (centres unmarked), the figure is -5.34%; as for `CCOC(=O)c1cc(-c2ccc(OC)c(S(=O)(=O)NCCc3ccc(Cl)cc3)c2)on1`, 1.61%; as for `O=C(NS(=O)(=O)c1cnccc1Sc1ccc(Cl)cc1)c1ccc(Cl)cc1`, -8.92%. As for `Nc1ncccc1NC(=O)CCCC(=O)O`, the figure is -4.42%; as for `Cc1oc(-c2ccccc2)nc1CSc1nc2ncccc2o1`, 1.97%; as for `Brc1cnc2[nH]c(COc3ccccc3)nc2c1`, 0.0345%. As for `CC(Cc1ccccc1)(NC(=O)CN)c1ccccc1` (centres unmarked), the figure is 1.43%; as for `Cc1nc(N2C(=O)C(O)=C(C(=O)c3cccs3)C2c2cccc(Br)c2)sc1C` (centres unmarked), -12.6%; as for `Cc1nc2cc(-c3ccccc3)nn2c(C)c1CCC(=O)NCCCN1CCCC1=O`, -2.25%. As for `Cc1cc(C)n(-c2nc(-c3cccnc3)nc3ccccc23)n1`, the “% Inhibition @ 10 uM” value came out at 0.408%. On to `CN(Cc1ccccc1)C(=O)c1cc(-c2ccco2)[nH]n1`, for which the “% Inhibition @ 10 uM” value was determined as 1.76%. As for `CC1CCN(S(=O)(=O)c2ccc3c(ccn3CCC(=O)NC3CCCc4ccccc43)c2)CC1` (centres unmarked), the figure is -1.08%; as for `CCC1=NN(C(=O)c2ccccc2OC)C(O)(C(F)(F)F)C1` (centres unmarked), -1.96%; as for `O=C(Cn1c(-c2ccccn2)nc2ccccc21)NCCCN1CCOCC1`, -5.92%. The value for `Cc1cc(=O)oc2c3c(ccc12)OCN(c1ccccn1)C3` was -6.85%; that for `Clc1ccc(-c2ccc(CN3CCc4ccccc4C3)o2)cc1` was -4.75%; that for `Cc1cccc(/C=C2/SC(=O)N(Cc3ccccc3Cl)C2=O)n1` was -4.88%.

On to `O=C(NCc1ccc2c(c1)OCO2)c1ccccc1Br`, for which the “% Inhibition @ 10 uM” value is 2.92%. As to `CCOC(=O)c1sc(NC(=O)c2nc(S(C)(=O)=O)ncc2Cl)c(C(=O)OCC)c1C`, the “% Inhibition @ 10 uM” value is reported as -1.11%. As for `COCc1[nH]nc2c1C(c1cc(OC)ccc1OC)C(C#N)=C(N)O2` (centres unmarked), the figure is 4.39%; as for `O=S(=O)(NCCc1ccc(Cl)cc1)c1ccc2[nH]c3c(c2c1)CCCC3`, 1.71%; as for `O=C1c2ccccc2C(=O)C1(c1ccccc1)N1CCN(CCO)CC1`, -1.83%.

On to `CCc1ccc(-c2nc(CSCC(=O)NCc3cccs3)c(C)o2)cc1`, for which the “% Inhibition @ 10 uM” value stood at 3.99%. As for `C1=C(CCNc2nc3ccccc3n3nnnc23)CCCC1`, the figure is -2.25%; as for `O=C(C1CCC(=O)N1C1CCCC1)N1CCC2(CC1)OCCO2` (centres unmarked), -1.21%. As for `COc1ccccc1N1C(=O)C2ON(c3ccccc3)C(c3cccc([N+](=O)[O-])c3)C2C1=O` (centres unmarked), the figure is 6.8%; as for `Cc1ccc(NC(=O)c2ccc(C)o2)c(NC(=O)c2ccc(C)o2)c1`, -11.8%; as for `COC(=O)c1nnn(-c2nc(N(C)C)nc(N(C)C)n2)c1C`, 2.57%. As to `Cc1cccc(CSc2nc3ccc(C(=O)NCc4ccco4)cc3n2C)c1`, the “% Inhibition @ 10 uM” value stood at 3.71%. As for `COc1ccc(-c2nc(N)n(C(=O)c3ccccc3Cl)n2)cc1`, the figure is -1.1%.

For the compound `CN(C)c1ccc2c(c1)OC(N)=C(C#N)C2c1ccc(-c2ccccc2)cc1` (centres unmarked), the “% Inhibition @ 10 uM” value was 6.06%.

Turning to `Cc1cc(C)c2oc(C(=O)Nc3cccnc3)cc(=O)c2c1`, the “% Inhibition @ 10 uM” value was -8.95%. As for `Cc1c(C#N)c2ncnc(Cl)c2n1-c1ccccc1`, the figure is 3.05%; as for `CCC(C)NC(=O)Cc1cn(C)c2ccccc12` (centres unmarked), -8.17%. The value for `Cc1cc(C)nc(NS(=O)(=O)c2ccc(NC(=O)COc3c(C)cccc3C)cc2)n1` was 1.57%. As for `CC1=C(C(=O)OCC2CCCCC2)C(c2ccccc2OC(C)C)NC(=O)N1` (centres unmarked), the figure is 8.98%; as for `Cc1nn(-c2ccccc2)c(-n2cccc2)c1C(=O)N1CCN(C(=O)c2ccco2)CC1`, -1.58%. Take `O=C(COc1ccc(Cl)cc1Cl)Nc1ccccc1[N+](=O)[O-]`: the “% Inhibition @ 10 uM” value was -5.51%. As for `CC(C)NC(=O)c1cnn2c(C(F)F)cc(-c3ccccc3)nc12`, the figure is -0.958%; as for `COc1ccccc1C(=O)N(Cc1cccc(F)c1)C1CCS(=O)(=O)C1` (centres unmarked), -3.34%; as for `Cc1ccc(S(=O)(=O)N2CCN(CC(O)COc3ccc4ccccc4c3)CC2)c(C)c1` (centres unmarked), -6.59%. The value for `Cc1ccccc1Cn1cnc2ccc(Cl)cc2c1=O` was 28.3%. As for `CCc1cccc(CC)c1NC(=O)c1ccc(CN2CCOCC2)cc1`, the figure is -5.54%; as for `Cn1c(C(=O)NCCc2ccccc2)cc2sccc21`, -1.37%. For the compound `O=C(Nc1nc(C2C3CC4CC(C3)CC2C4)cs1)c1c(O)nc2ccccc2c1O` (centres unmarked), the “% Inhibition @ 10 uM” value is -5.49%. Regarding `O=c1c2c3c(sc2[nH]c(=S)n1Cc1ccccc1)CCC3`, the “% Inhibition @ 10 uM” value was found to be 21%. As for `Nc1nc(NCCc2ccccc2)nc(-c2cc(Cl)ccc2O)n1`, the figure is -1.17%. As for `Cc1onc(-c2ccccc2Cl)c1C(=O)NC(C)c1ccccc1` (centres unmarked), the figure is -0.769%.

As for `Cc1cccc(OCC(=O)Nc2ccc3c(c2)OCO3)c1`, the “% Inhibition @ 10 uM” value is given as -1.52%.

Consider `CSc1ccc(CCNCc2c(C(=O)O)c(C)n(Cc3ccc(F)cc3Cl)c2C)cc1`, for which the “% Inhibition @ 10 uM” value was 2.99%. As for `CC(=O)c1[nH]c(C)c(C(=O)NCc2ccccc2Cl)c1C`, the figure is 5.27%; as for `C=CCn1c(SCc2ccccc2Cl)nc2c1c(=O)[nH]c(=O)n2C`, -0.273%.

With `O=C(NCc1ccco1)c1ccc(CSCc2ccccc2Cl)o1`, the “% Inhibition @ 10 uM” value amounted to 3.79%.

Regarding `O=C(c1cccnc1Cl)N1CCN(C(c2ccccc2)c2ccccc2)CC1`, the “% Inhibition @ 10 uM” value is reported as -4.33%. Consider `O=C(NCCCN1CCOCC1)Nc1cccc2ccccc12`, for which the “% Inhibition @ 10 uM” value is -2.18%. `CC(C)n1c(SCCCc2ccccc2)nc2c1c(=O)[nH]c(=O)n2C`: the “% Inhibition @ 10 uM” value stood at 2.38%.

Consider `c1cc(-c2nnco2)ccn1`, for which the “% Inhibition @ 10 uM” value amounted to 0.238%. The value for `Cn1c2ccccc2c2nnc(NCCc3c[nH]c4ccccc34)nc21` was -2.48%; that for `CN(Cc1ccco1)C(=O)c1cc2c(s1)-c1ccc(Cl)cc1S(=O)(=O)C2` was -2.45%; that for `O=C(CCSCCC(=O)N1CCc2ccccc21)N1CCc2ccccc21` was 3.67%. With `Cc1[nH]c(-c2ccc(F)cc2)cc1C(=O)N1CCN(C2CCCCC2)CC1`, the “% Inhibition @ 10 uM” value came to 8.37%. The value for `Cc1nc(NC(=O)CC23CC4CC(CC(C4)C2)C3)sc1-c1ccccc1` was 0.776%.

For `CCN(CC)CCCN1C(=O)C(O)=C(C(C)=O)C1c1ccc(OC)cc1OC` (centres unmarked), the “% Inhibition @ 10 uM” value was found to be 1.52%. The value for `COc1ccc(-c2nc(CSCC(=O)NCc3ccco3)c(C)o2)cc1` was -2.85%; that for `CN(C(=O)c1cccs1)c1ccccc1` was 3.85%. As for `Cn1c(=O)c(C(=O)NC2CCCCCC2)c(O)c2ccccc21`, the figure is 2%; as for `COc1ccc(-c2noc(CCCOc3ccccc3)n2)cc1OC`, 1.72%. The value for `O=C(Cn1c(=O)sc2ccccc21)Nc1cc(Cl)ccc1Cl` was -15.4%; that for `N#Cc1c(SCC(=O)O)nc2c(c1-c1cccs1)CCCC2` was 43.2%; that for `CCN1CCN(C(=O)CC(c2cccs2)N2Cc3ccccc3C2=O)CC1` (centres unmarked) was -2.37%.

As for `Cc1cccc(OC(C)C(=O)N(Cc2cccs2)C2CCS(=O)(=O)C2)c1C` (centres unmarked), the “% Inhibition @ 10 uM” value is reported as -13.2%. With `CCCCCn1c(=O)c(C(=O)Nc2ccncc2)c(O)c2ccccc21`, the “% Inhibition @ 10 uM” value is listed as -2.88%. The value for `CCOc1ccc(CCNCc2c(C(=O)O)c(C)n(Cc3ccccc3C)c2C)cc1` was -5.49%; that for `CCCCCC1CCC(c2ccc(C(=O)Nc3ccc(Cl)c4c3C(=O)c3ccccc3C4=O)cc2)CC1` (centres unmarked) was -7.02%; that for `N#CC(c1nc2ccccc2nc1OCCO)S(=O)(=O)c1ccccc1` (centres unmarked) was -1.45%. The value for `c1ccc(N2CCN(C3CC4CCC3C4)CC2)cc1` (centres unmarked) was -0.414%.

For `CCOC(=O)c1[nH]c(C)c(Cc2ccc(OCC)cc2)c1C`, the “% Inhibition @ 10 uM” value stood at 2.58%. Regarding `COc1ccc(C2CC(=O)N=C(NC(=O)c3ccccc3F)N2)cc1` (centres unmarked), the “% Inhibition @ 10 uM” value came out at 1.13%. The value for `CC(C)CCC(C(=O)NCC#N)c1ccc(-c2ccccc2)cc1` (centres unmarked) was 0.744%; that for `CCOc1cc(CNCCc2ccccc2F)ccc1OC` was -2.22%. The value for `CC(CCc1ccccc1)NC(=O)c1cn(C)c(=O)c2ccccc12` (centres unmarked) was -6.13%; that for `Cc1ccc(-c2noc(-c3nnn(-c4ccc(C(F)(F)F)c(Cl)c4)c3N)n2)cc1` was 3.98%. As for `NC(=O)c1c(NC(=O)c2cccc(F)c2)sc2c1CCCCCC2`, the figure is 10.3%; as for `COCCNC(=O)Cn1nc(C(F)(F)F)c(Br)c1C`, -6.57%.

On to `CCOc1ccc(N2C(=O)CC(NCCN3CCOCC3)C2=O)cc1` (centres unmarked), for which the “% Inhibition @ 10 uM” value came to 4.83%. The value for `Clc1ccccc1CN1CCN(c2ccccc2)CC1` was -3.65%; that for `CC(=O)c1ccc2c(c1O)CCC(c1ccccc1)O2` (centres unmarked) was -6.62%.

For the compound `Cc1ccc(NC2=C(Cl)C(=O)N(c3ccccc3)C2=O)c(C)c1`, the “% Inhibition @ 10 uM” value is listed as 0.385%.

Turning to `CCCNc1nc(Cl)nc(NCc2cccnc2)n1`, the “% Inhibition @ 10 uM” value was -7.3%. The value for `CC(Cc1ccc(F)cc1)N1CCN(c2ccccc2F)CC1` (centres unmarked) was -1.41%; that for `Cc1[nH]nc(Nc2ccc(Br)cc2)c1[N+](=O)[O-]` was 4.44%; that for `CCOc1ccccc1C(=O)N1CCCCC1C` (centres unmarked) was 3.21%. As for `Cc1cccc(C(=O)Nc2ccc(NC(=O)c3cc4ccccc4o3)cc2)c1`, the figure is -2.99%; as for `COc1ccc(C2OCC3(CO)C(C)C=C(C)C2C3C)cc1` (centres unmarked), 3.61%. As for `CC(C)C[C@H](NC(=O)c1cc(-c2ccccc2Cl)cc(-c2ccccc2Cl)c1)C(=O)NCC#N`, the figure is -5.2%.
